Test results as given in the supplement of paper PMC11417369.
± gives the standard deviation of the averaged measurements. This is one part of the list.

system: PfAP2-EXP AP2 domain (GST-tagged); test: gcPBM binding intensity (ln(normalized median fluorescence intensity)); higher = stronger DNA binding
How it was run: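 Binding intensity is defined as the maximum Masliner-normalised natural-log median intensity across replicate spots for either probe orientation. It was measured on an Agilent 4 × 180k array of primer-extended double-stranded 36-bp intergenic genomic probes and negative controls, to which GST-tagged P. falciparum DNA-binding domains made in E. coli were applied for 1 h in 1× PBS with 1% milk, 0.2 mg/ml BSA, 0.5% salmon testes DNA and 0.03% Triton X-100. Detection was by Alexa488 anti-GST antibody and scanning at 488 nm.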

Sequence | gcPBM binding intensity (ln)
TCAAACAAAAAAGAAACACACACTAATTAAATTTTC [CACACA_site1101] | 8.47 ± 0.49
AATAATTTGAAGGTGATAGTATTACATGGGAAATCA [CACACA_negctrl_site301] | 8.65 ± 0.47
AAATCGAACAAATTATGTACTAAAAAAAAAATTTAT [XGTACX_site6399] | 8.39 ± 0.4
GTACATATAAATATTACACACATTTTCATTTTTAAC [CACACA_site1986] | 8.62 ± 0.52
TTATATGCATCCAAAAAGGAATGTTTTTAGAGAATC [CACACA_negctrl_site1062] | 8.3 ± 0.35
ATCTTTCGAACATGTACACACAGAAAAAAAAAAAAA [CACACA_site5393] | 8.56 ± 0.4
TAAAAAGTATATGGTCGTACACTTTTGATTAATACA [XGTACX_site7804] | 8.36 ± 0.33
TGTATAGGTACAATAATTATAGAGTAATTGACATTA [GTGCAC_negctrl_site183] | 8.37 ± 0.52
GTGTAGGCAAAAAGTTGTACGCCTAAAATCTATATA [XGTACX_site8912] | 8.73 ± 0.43
TTATTTTTTTCAACAAGTACTAATACAAAATAAAAC [XGTACX_site6460] | 8.68 ± 0.3
TTGTATTATTAAATTATAAAACCTATAATTATGGAT [GTGCAC_negctrl_site340] | 8.16 ± 0.47
GATTAAATCGATAATACACACTAAATGTAAAACATT [CACACA_site4248] | 8.43 ± 0.42
TGATAACTAAATACATGTACAAATTAAAAAGAAAAA [XGTACX_site3080] | 8.8 ± 0.44
TAATGATTATATGACTGTACATTTGTAGGTATAATT [XGTACX_site3373] | 8.52 ± 0.32
GCAAAATAAAGAAGCACACAAAAATGAAATATATAT [CACACA_site3651] | 8.85 ± 0.53
TTTAATTAATAATAATATAAATTGTTCTTTTTTTTT [GTGCAC_negctrl_site176] | 7.88 ± 0.4
CATATTTATAAATATAAACACACAACATTATATGCA [CACACA_site9065] | 8.68 ± 0.42
ATTTATATATATCATACACACTAATATGTATATTAT [CACACA_site5816] | 8.47 ± 0.43
AAAAAAAATACATACATACACACATATATATATATA [CACACA_site912] | 9.98 ± 0.38
TCTTGGTATATTCAATATATGATTTATATAATTCAA [CACACA_negctrl_site818] | 8.38 ± 0.35
ACTAGTAAATTTATATGTACATATATATATATATAG [XGTACX_site2502] | 8.68 ± 0.24
TATACGTAATAATATGCACACAAATAAACTTTATAA [CACACA_site9166] | 8.68 ± 0.32

Sequence | gcPBM binding intensity (ln)
ATATATAATATAATATGTACATATAATCAATCCTGT [XGTACX_site8694] | 8.48 ± 0.28
ATTTAGTATTCGAAACGTACACATATATATATATAT [XGTACX_site3910] | 10.2 ± 0.4
ATATTTTTTTTCTTCACACACATGAGTTATAAATAA [CACACA_site7498] | 8.82 ± 0.37
AATGAAACAATACCCAGTAAAAAAAAAAAATAAATA [TGCATGCA_negctrl_site205] | 8.34 ± 0.83
TGTAATCTGGAGAAGAGTACACAGTATCTGGTAGCT [XGTACX_site4935] | 8.43 ± 0.34
GGACGTATTAAAAGGCGTACACTAAATATTTTATGT [XGTACX_site146] | 8.52 ± 0.28
TAATATTTATATAATTGTACTTTGTTTGTAAATCCA [XGTACX_site7292] | 8.2 ± 0.53
TATTTATATAATCCTATAATATTACTACTATCTTTA [GTGCAC_negctrl_site342] | 8.29 ± 0.4
AAGATAATTACGCACACACACACACGCCCACAACTA [CACACA_site7255] | 8.85 ± 0.33
ATTATAATTTTGTAAAGTACATATTATTATATATTA [XGTACX_site7191] | 8.04 ± 0.31
AAGGTAAAATATAAGTGTACTTTTTCTTAATCTTCG [XGTACX_site514] | 8.31 ± 0.15
ATACACAAATGCATACGTACATATATATATATATAT [XGTACX_site3504] | 10.2 ± 0.33
ATGTAATATGTTCATGCATGTAAAATTACATTTAGA [TGCATGCA_site852] | 9.01 ± 0.3
TAAAACAAAATAACATGTACAAAAAAAAAAAAAAAA [XGTACX_site2915] | 8.2 ± 0.49
AAAAAAAAAAAAACAACACACAATGTTTTATTTTAC [CACACA_site1613] | 8.31 ± 0.32
CATATAAGAATCTTCTGTACTTATAAGAAAAGACAT [XGTACX_site8135] | 8.61 ± 0.3
ATATCTATAATAAACACACAAATAGATATAACATAT [CACACA_site7702] | 8.87 ± 0.41
AAAAAAAAATTAAAAACACACATATATATATATATA [CACACA_site1580] | 10.2 ± 0.39
AAAATTTAATATGAATGTACATAAAAAAAAAAAAAA [XGTACX_site6719] | 8.54 ± 0.66
TAAGTATATTTCTGCACACAAAAAAAAAAACCAAAA [CACACA_site4056] | 8.46 ± 0.43
TATAAATAAAGACTTTTTTCTAACTTTTTTTTGTAT [CACACA_negctrl_site1015] | 8.43 ± 0.49
TATATATATATATATGTGCACATTTATTGCCTTTGC | 10.1 ± 0.52
